Source: patent US5440016A, “Peptides of the formula (KFmoc) ZZZ and their uses” (priority 1993, dated 1995)
Converted amounts (≈) assume the structure as drawn. Where two headings read alike, the source gives them in different places. Part of at least one peptide drawing is inferred or uncertain, most often the ends. Square brackets hold non-standard residues; d marks the D form. Peptide text beside a SMILES is read from it. * marks the point of attachment. Met(O2) = CS(=O)(=O)CC[C@H](N)C(=O)O; Fmoc = O=C(OCC1c2ccccc2-c2ccccc21)*; Nle = CCCC[C@H](N)C(=O)O; Orn = NCCC[C@H](N)C(=O)O; Nva = CCC[C@H](N)C(=O)O; Abu = CC[C@H](N)C(=O)O; βAla = NCCC(=O)O

Key:
[1] = tested on: Candida albicans ATCC 10231
[2] = tested on: Staphylococcus aureus ATCC 29213
[3] = tested on: Streptococcus sanguis ATCC 10556
[4] = tested on: Escherichia coli ATCC 25922
[5] = Tables 2-5, concentration necessary to inhibit 50% growth
[6] = Tables 15-17, lower parts (unnatural amino acids)
[7] = Tables 7-9, lower parts (unnatural amino acids)
[8] = Tables 11-13, lower parts (unnatural amino acids)
[9] = Tables 3-5, lower parts (unnatural amino acids)

| SMILES | IC50 against C. albicans ([1]; Tables 14-17) | IC50 against S. aureus ([2]; Tables 6-9) | IC50 against S. sanguis ([3]; Tables 10-13) | IC50 against E. coli [4, 5] | other results |
| --- | --- | --- | --- | --- | --- |
| NCCCC[C@H](NC(=O)OCC1c2ccccc2-c2ccccc21)C(=O)N[C@@H](Cc1c[nH]c2ccccc12)C(=O)N[C@@H](CCCCN)C(=O)N1CCC[C@H]1C(N)=O [(KFmoc)WKP-NH2] (Fmoc-KWKP-NH2) | 338 µg/mL (≈ 434 µM) | 13 µg/mL (≈ 16.7 µM) | 9 µg/mL (≈ 11.6 µM) | 67 µg/mL (≈ 86 µM) |  |
| NCCCC[C@H](NC(=O)[C@H](Cc1ccc(O)cc1)NC(=O)[C@H](Cc1c[nH]c2ccccc12)NC(=O)[C@H](CCCCN)NC(=O)OCC1c2ccccc2-c2ccccc21)C(N)=O [(KFmoc)WYK-NH2] (Fmoc-KWYK-NH2) | 101 µg/mL (≈ 120 µM) | 6 µg/mL (≈ 7.1 µM) | 6 µg/mL (≈ 7.1 µM) | 35 µg/mL (≈ 41.4 µM) |  |
| CC(C)[C@H](NC(=O)[C@H](Cc1ccc(O)cc1)NC(=O)[C@H](Cc1c[nH]c2ccccc12)NC(=O)[C@H](CCCCN)NC(=O)OCC1c2ccccc2-c2ccccc21)C(N)=O [(KFmoc)WYV-NH2] (Fmoc-KWYV-NH2) | 467 µg/mL (≈ 572 µM) | 9 µg/mL (≈ 11 µM) | 10 µg/mL (≈ 12.3 µM) | 102 µg/mL (≈ 125 µM) | IC50 against S. sanguis ([3]; Tables 10-13, listed as (KFmoc)WYv-NH2): 7 µg/mL (≈ 8.58 µM) |
| CC(C)C[C@H](NC(=O)[C@@H](Cc1ccccc1)NC(=O)[C@H](Cc1c[nH]c2ccccc12)NC(=O)[C@H](CCCCN)NC(=O)OCC1c2ccccc2-c2ccccc21)C(N)=O [(KFmoc)WfL-NH2] (Fmoc-KW[dF]L-NH2) | 267 µg/mL (≈ 328 µM) | 4 µg/mL (≈ 4.91 µM) | 4 µg/mL (≈ 4.91 µM) | 10 µg/mL (≈ 12.3 µM) |  |
| CC[C@H](NC(=O)[C@H](NC(=O)[C@@H](CS)NC(=O)[C@H](CCCCN)NC(=O)OCC1c2ccccc2-c2ccccc21)[C@H](C)CC)C(N)=O [(KFmoc)ci(aABA)-NH2] (Fmoc-K[dC][dI][Abu]-NH2) |  |  |  |  | IC50 against C. albicans [1, 6]: 194 μg/m; IC50 against S. aureus [2, 7]: 5 μg/m; IC50 against S. sanguis [3, 8]: 4 μg/m; IC50 against E. coli [4, 9]: 25 μg/m |
| NCCCC[C@H](NC(=O)[C@@H](Cc1ccccc1)NC(=O)[C@H](Cc1c[nH]c2ccccc12)NC(=O)[C@H](CCCCN)NC(=O)OCC1c2ccccc2-c2ccccc21)C(N)=O [(KFmoc)WfK-NH2] (Fmoc-KW[dF]K-NH2) | 207 µg/mL (≈ 250 µM) | 6 µg/mL (≈ 7.24 µM) | 5 µg/mL (≈ 6.03 µM) | 76 µg/mL (≈ 91.7 µM) | IC50 against C. albicans ([1]; Tables 14-17, listed as (KFmoc)Wfk-NH2): 196 µg/mL (≈ 236 µM); IC50 against S. aureus ([2]; Tables 6-9, listed as (KFmoc)Wfk-NH2): 9 µg/mL (≈ 10.9 µM); IC50 against S. sanguis ([3]; Tables 10-13, listed as (KFmoc)Wfk-NH2): 9 µg/mL (≈ 10.9 µM); IC50 against E. coli ([4]; Tables 2-5, concentration necessary to inhibit 50% growth, listed as (KFmoc)Wfk-NH2): 101 µg/mL (≈ 122 µM) |
| N=C(N)NCCC[C@H](NC(=O)[C@H](Cc1ccc(O)cc1)NC(=O)[C@H](Cc1c[nH]c2ccccc12)NC(=O)[C@H](CCCCN)NC(=O)OCC1c2ccccc2-c2ccccc21)C(N)=O [(KFmoc)WYR-NH2] (Fmoc-KWYR-NH2) | 124 µg/mL (≈ 142 µM) | 5 µg/mL (≈ 5.73 µM) | 5 µg/mL (≈ 5.73 µM) | 23 µg/mL (≈ 26.3 µM) |  |
| C[C@H](NC(=O)[C@H](CCCCN)NC(=O)[C@H](Cc1c[nH]c2ccccc12)NC(=O)[C@H](CCCCN)NC(=O)OCC1c2ccccc2-c2ccccc21)C(N)=O [(KFmoc)WKA-NH2] (Fmoc-KWKA-NH2) | 333 µg/mL (≈ 442 µM) | 9 µg/mL (≈ 12 µM) | 8 µg/mL (≈ 10.6 µM) | 50 µg/mL (≈ 66.4 µM) |  |
| CCCC[C@H](NC(=O)[C@H](CCCCN)NC(=O)[C@H](Cc1c[nH]c2ccccc12)NC(=O)[C@H](CCCCN)NC(=O)OCC1c2ccccc2-c2ccccc21)C(N)=O [(KFmoc)WK(Nle)-NH2] (Fmoc-KWK[Nle]-NH2) | 74 µg/mL (≈ 93.1 µM) | 7 µg/mL (≈ 8.81 µM) | 6 µg/mL (≈ 7.55 µM) | 26 µg/mL (≈ 32.7 µM) |  |
| N=C(N)NCCC[C@H](NC(=O)[C@H](CCCCN)NC(=O)[C@H](Cc1c[nH]c2ccccc12)NC(=O)[C@H](CCCCN)NC(=O)OCC1c2ccccc2-c2ccccc21)C(N)=O [(KFmoc)WKR-NH2] (Fmoc-KWKR-NH2) | 108 µg/mL (≈ 129 µM) | 7 µg/mL (≈ 8.35 µM) | 7 µg/mL (≈ 8.35 µM) | 74 µg/mL (≈ 88.3 µM) |  |
| NCCCC[C@H](NC(=O)OCC1c2ccccc2-c2ccccc21)C(=O)N[C@@H](Cc1c[nH]c2ccccc12)C(=O)N[C@@H](CCCCN)C(=O)NCCC(N)=O [(KFmoc)WK(Bala)-NH2] (Fmoc-KWK[βAla]-NH2) | 238 µg/mL (≈ 316 µM) | 11 µg/mL (≈ 14.6 µM) | 9 µg/mL (≈ 12 µM) | 51 µg/mL (≈ 67.7 µM) |  |
| CS(=O)(=O)CC[C@H](NC(=O)[C@H](CCCCN)NC(=O)[C@H](Cc1c[nH]c2ccccc12)NC(=O)[C@H](CCCCN)NC(=O)OCC1c2ccccc2-c2ccccc21)C(N)=O [(KFmoc)WK(MetO2)-NH2] (Fmoc-KWK[Met(O2)]-NH2) | 294 µg/mL (≈ 348 µM) | 9 µg/mL (≈ 10.7 µM) | 9 µg/mL (≈ 10.7 µM) | 46 µg/mL (≈ 54.4 µM) |  |
| C[C@@H](O)[C@H](NC(=O)[C@H](Cc1ccc(O)cc1)NC(=O)[C@H](Cc1c[nH]c2ccccc12)NC(=O)[C@H](CCCCN)NC(=O)OCC1c2ccccc2-c2ccccc21)C(N)=O [(KFmoc)WYT-NH2] (Fmoc-KWYT-NH2) | 152 µg/mL (≈ 186 µM) | 8 µg/mL (≈ 9.78 µM) | 8 µg/mL (≈ 9.78 µM) | 71 µg/mL (≈ 86.8 µM) |  |
| NCCCC[C@H](NC(=O)OCC1c2ccccc2-c2ccccc21)C(=O)N[C@@H](Cc1c[nH]c2ccccc12)C(=O)N[C@@H](CCCCN)C(=O)N[C@@H](Cc1c[nH]c2ccccc12)C(N)=O [(KFmoc)WKW-NH2] (Fmoc-KWKW-NH2) | 124 µg/mL (≈ 143 µM) | 4 µg/mL (≈ 4.61 µM) | 3 µg/mL (≈ 3.46 µM) | 14 µg/mL (≈ 16.1 µM) |  |
| NCCCC[C@H](NC(=O)OCC1c2ccccc2-c2ccccc21)C(=O)N[C@@H](Cc1c[nH]c2ccccc12)C(=O)N[C@H](Cc1ccccc1)C(=O)N[C@H](Cc1c[nH]c2ccccc12)C(N)=O [(KFmoc)Wfw-NH2] (Fmoc-KW[dF][dW]-NH2) | 143 µg/mL (≈ 161 µM) | 2 µg/mL (≈ 2.25 µM) | 2 µg/mL (≈ 2.25 µM) | 27 µg/mL (≈ 30.4 µM) |  |
| NCCCC[C@H](NC(=O)OCC1c2ccccc2-c2ccccc21)C(=O)N[C@@H](Cc1c[nH]c2ccccc12)C(=O)N[C@H](Cc1ccccc1)C(=O)N[C@@H](CCCN)C(N)=O [(KFmoc)Wf(Orn)-NH2] (Fmoc-KW[dF][Orn]-NH2) |  |  |  |  | IC50 against C. albicans [1, 6]: 89 μg/m; IC50 against S. aureus [2, 7]: 4 μg/m; IC50 against S. sanguis [3, 8]: 4 μg/m; IC50 against E. coli [4, 9]: 30 μg/m |
| CC(C)[C@H](NC(=O)[C@H](CCCCN)NC(=O)[C@H](Cc1c[nH]c2ccccc12)NC(=O)[C@H](CCCCN)NC(=O)OCC1c2ccccc2-c2ccccc21)C(N)=O [(KFmoc)WKV-NH2] (Fmoc-KWKV-NH2) | 148 µg/mL (≈ 190 µM) | 8 µg/mL (≈ 10.2 µM) | 9 µg/mL (≈ 11.5 µM) | 32 µg/mL (≈ 41 µM) |  |
| NCCCC[C@H](NC(=O)OCC1c2ccccc2-c2ccccc21)C(=O)N[C@@H](Cc1c[nH]c2ccccc12)C(=O)N[C@@H](Cc1ccc(O)cc1)C(=O)N[C@@H](Cc1c[nH]cn1)C(N)=O [(KFmoc)WYH-NH2] (Fmoc-KWYH-NH2) | 165 µg/mL (≈ 193 µM) | 8 µg/mL (≈ 9.37 µM) | 9 µg/mL (≈ 10.5 µM) | 35 µg/mL (≈ 41 µM) |  |
| CC[C@H](NC(=O)[C@H](Cc1ccc(O)cc1)NC(=O)[C@H](Cc1c[nH]c2ccccc12)NC(=O)[C@H](CCCCN)NC(=O)OCC1c2ccccc2-c2ccccc21)C(N)=O [(KFmoc)WY(aABA)-NH2] (Fmoc-KWY[Abu]-NH2) |  |  |  |  | IC50 against C. albicans [1, 6]: 204 μg/m; IC50 against S. aureus [2, 7]: 4 μg/m; IC50 against S. sanguis [3, 8]: 5 μg/m; IC50 against E. coli [4, 9]: 43 μg/m |
| NCCCC[C@H](NC(=O)OCC1c2ccccc2-c2ccccc21)C(=O)N[C@@H](Cc1c[nH]c2ccccc12)C(=O)N[C@@H](CCCCN)C(=O)N[C@@H](Cc1ccc(O)cc1)C(N)=O [(KFmoc)WKY-NH2] (Fmoc-KWKY-NH2) | 138 µg/mL (≈ 163 µM) | 5 µg/mL (≈ 5.92 µM) | 5 µg/mL (≈ 5.92 µM) | 27 µg/mL (≈ 32 µM) |  |
| CC(C)C[C@H](NC(=O)[C@H](CCCCN)NC(=O)[C@H](Cc1c[nH]c2ccccc12)NC(=O)[C@H](CCCCN)NC(=O)OCC1c2ccccc2-c2ccccc21)C(N)=O [(KFmoc)WKL-NH2] (Fmoc-KWKL-NH2) | 97 µg/mL (≈ 122 µM) | 8 µg/mL (≈ 10.1 µM) | 5 µg/mL (≈ 6.29 µM) | 18 µg/mL (≈ 22.6 µM) |  |
| CCC[C@H](NC(=O)[C@H](CCCCN)NC(=O)[C@H](Cc1c[nH]c2ccccc12)NC(=O)[C@H](CCCCN)NC(=O)OCC1c2ccccc2-c2ccccc21)C(N)=O [(KFmoc)WK(Nve)-NH2] (Fmoc-KWK[Nva]-NH2) | 158 µg/mL (≈ 202 µM) | 10 µg/mL (≈ 12.8 µM) |  | 32 µg/mL (≈ 41 µM) |  |
| NCCCC[C@H](NC(=O)OCC1c2ccccc2-c2ccccc21)C(=O)N[C@@H](Cc1c[nH]c2ccccc12)C(=O)N[C@@H](Cc1ccc(O)cc1)C(=O)N[C@@H](CCC(N)=O)C(N)=O [(KFmoc)WYQ-NH2] (Fmoc-KWYQ-NH2) | 541 µg/mL (≈ 640 µM) | 12 µg/mL (≈ 14.2 µM) | 13 µg/mL (≈ 15.4 µM) |  | IC50 against S. aureus ([2]; Tables 6-9, listed as (KFmoc)WYq-NH2): 10 µg/mL (≈ 11.8 µM); IC50 against S. sanguis ([3]; Tables 10-13, listed as (KFmoc)WYq-NH2): 11 µg/mL (≈ 13 µM) |
| NCCCC[C@H](NC(=O)OCC1c2ccccc2-c2ccccc21)C(=O)N[C@@H](Cc1c[nH]c2ccccc12)C(=O)N[C@@H](CCCCN)C(=O)NCCCC[C@H](NC(=O)OCC1c2ccccc2-c2ccccc21)C(N)=O [(KFmoc)WK(KFmoc)-NH2] | 199 µg/mL (≈ 193 µM) | 9 µg/mL (≈ 8.72 µM) | 12 µg/mL (≈ 11.6 µM) |  |  |
